Test results from PubChem BioAssay AID1468 (National Center for Advancing Translational Sciences (NCATS), 2008).
In all, about 280,000 compounds went through this assay and about 1,100 (0.39%) were called active. Inconclusive results, whose numbers are uncertain, are shown with a selection of clear calls. Calls come from the whole dose curve; as a rule, active = well fitted inhibition curve with a large enough effect; inconclusive = small, poorly fitted or top-dose-only effect, or effect the other way; inactive = flat fitted curve, though single readings scatter. No potency is given beside an inconclusive call; the fits are too rough.

Biological target: Microtubule-associated protein tau (Homo sapiens) (UniProt P10636)
Chain of UniProt P10636 (P10636 whole entry, looked up): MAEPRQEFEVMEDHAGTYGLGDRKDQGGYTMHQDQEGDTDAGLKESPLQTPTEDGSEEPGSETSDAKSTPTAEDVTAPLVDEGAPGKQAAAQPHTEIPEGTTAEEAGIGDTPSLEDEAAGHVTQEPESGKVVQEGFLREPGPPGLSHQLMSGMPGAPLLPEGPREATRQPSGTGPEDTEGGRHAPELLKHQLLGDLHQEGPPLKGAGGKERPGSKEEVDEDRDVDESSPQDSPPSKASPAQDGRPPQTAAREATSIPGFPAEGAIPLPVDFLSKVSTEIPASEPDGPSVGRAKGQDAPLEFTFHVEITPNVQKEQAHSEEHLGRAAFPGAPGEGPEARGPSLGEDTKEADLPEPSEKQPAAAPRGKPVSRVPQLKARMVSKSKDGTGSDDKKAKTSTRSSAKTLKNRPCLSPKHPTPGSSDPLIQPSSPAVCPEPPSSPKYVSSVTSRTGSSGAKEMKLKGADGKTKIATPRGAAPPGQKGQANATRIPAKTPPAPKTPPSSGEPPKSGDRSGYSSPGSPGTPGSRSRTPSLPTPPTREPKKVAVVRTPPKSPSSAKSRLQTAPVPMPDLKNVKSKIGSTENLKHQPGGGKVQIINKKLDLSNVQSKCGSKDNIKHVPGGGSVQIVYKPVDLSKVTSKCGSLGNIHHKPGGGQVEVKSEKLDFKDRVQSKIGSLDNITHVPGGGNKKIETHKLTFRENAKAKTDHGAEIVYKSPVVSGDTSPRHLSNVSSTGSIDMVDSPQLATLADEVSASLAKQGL
Assay: qHTS for Inhibitors of Tau Fibril Formation, Fluorescence Polarization; note: nearly all actives have a fitted effect of over 55% in size
Details: K18 P301L tau heparin fibrillization, Alexa594 FP, 6 h; series mostly up to 57.7 µM; activity, negative = inhibition: at the top concentration
In short: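 FP of Alexa 594-tau after heparin (20 uM) induction. Substrate: human K18 P301L, 15 uM unlabeled, 0.24 uM labeled. Buffer 100 mM sodium acetate pH 7. 6 hr, 37 C.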
% is set by controls: 0 for no effect and ±100 for the full control effect; potency is the fitted concentration of half-maximal effect; tags give direction and shape of the fitted curve.

SMILES | Potency | activity, negative = inhibition
Clc1ccc(CONc2ncnc3nonc23)c(Cl)c1 | inconclusive [inhibitor, single point] | –
CC1=CC2=NC(=O)/C(=C\c3cccn3CCOc3ccc(C)c(C)c3)C(=N)N2O1 | inconclusive [inhibitor, partial curve] | –
Cc1ccc(C)c(CNC(=O)c2ccc3c(c2)nc2n3CCC(C)C2)c1 (stereo not given) | – | inactive: -2.73%
Cc1cc(C)c2nc(SCC(=O)Nc3ccc(S(=O)(=O)N4CCCC4)cc3)c(C)cc2c1 | inconclusive [inhibitor, single point] | –
O=C1c2oc3ccccc3c(=O)c2C(c2ccc(O)cc2)N1c1nccs1 (stereo not given) | inconclusive [inhibitor, partial curve] | –
COc1ccc(Br)cc1CNC(=O)c1cc(=O)[nH]c2ccc(S(=O)(=O)N3CCCCC3)cc12 | inconclusive [inhibitor, full curve, poor fit] | –
CCCSc1nc(-c2ccc(OC)cc2)cc(-c2ccccc2OC)c1C#N | active: 25.1 µM | –
Cc1cc(OC(F)F)ccc1NC(=O)Nc1ccc([N+](=O)[O-])cc1 | inconclusive [inhibitor, single point] | –
Cc1ccccc1Cn1ccc(=NCc2ccccc2)cc1 | – | inactive: -7.31%
O=c1ccsn1Cc1ccccc1 | active: 14.1 µM | –
CCOC(=O)c1ccc(NS(=O)(=O)c2ccc3c(c2)OCCO3)cc1 | – | inactive: -8.52%
N#Cc1ccc(NC(=O)COC(=O)C2Cc3ccccc3CN2C(=O)c2ccccc2)cc1 (stereo not given) | inconclusive [inhibitor, full curve, poor fit] | –
COC(=O)c1c(C)[nH]c(C(=O)OCC(=O)NC(C)(C)C)c1C | – | inactive: -1.84%
S=c1[nH]nc(-c2cc(-c3ccco3)[nH]n2)n1-c1ccccc1Cl | inconclusive [inhibitor, single point] | –
Cc1ccc2occ(CC(=O)Nc3ccc(S(=O)(=O)N4CCCC(C)C4)cc3)c2c1 (stereo not given) | inconclusive [inhibitor, partial curve] | –
CCC1CN(C(=O)NCc2ccccc2)c2cc(C)ccc2O1 (stereo not given) | inconclusive [inhibitor, partial curve] | –
CCCCOC(=O)C1CCCC(C(=O)OCCCC)N1 (stereo not given) | – | inactive: -3.59%
O=c1c2cc3c(cc2n(Cc2ccccc2)c(=O)n1Cc1nc(-c2ccccc2)no1)OCO3 | inconclusive [inhibitor, partial curve] | –
CCOC(=O)N1CCC2(CC1)OC(=O)C(C)=C2C(=O)NCc1ccc(C)cc1 | – | inactive: 1.66%
CCc1nn(-c2ccccc2)c2nc(-c3ccc(O)cc3)c3cc(OC)c(OC)cc3c12 | inconclusive [inhibitor, partial curve] | –
COc1ccc(-c2csc(NNC3=NCCCCC3)n2)cc1 | inconclusive [inhibitor, single point] | –
Cc1nn(CC(=O)N2CCC(C)CC2)c(=O)c2cc3occc3n12 | – | inactive: -0.634%
Cn1c2ccccc2c2cnn(CC(=O)Nc3cccc(F)c3)c(=O)c21 | inconclusive [inhibitor, single point] | –

SMILES | Potency | activity, negative = inhibition
CCCNS(=O)(=O)c1ccc(OCC(=O)OC)cc1 | – | inactive: -0.854%
CSc1nc(N)nc(SCC(=O)c2ccc(C)cc2)c1C#N | inconclusive [inhibitor, single point] | –
O=C(CSc1nc(SCC(=O)NCc2ccccc2)n(-c2ccccc2)n1)NCc1ccccc1 | – | inactive: -1.42%
O=C1C2=CC[C@H]3C(=O)N(C[C@@H]4CCCO4)C(=O)[C@@H]3[C@@H]2[C@H](O)[C@@H]2O[C@H]12 | inconclusive [inhibitor, partial curve] | –
Cc1ccoc1C(=O)NCCCNC(=O)c1occc1C | inconclusive [inhibitor, partial curve] | –
O=C(O)c1[nH]c2ccccc2c1NS(=O)(=O)Cc1ccccc1 | – | inactive: 8.91%
CSCCC(NS(=O)(=O)c1ccc(Cl)cc1)C(=O)OCC(=O)N1CCCc2ccccc21 (stereo not given) | inconclusive [inhibitor, single point] | –
COc1cccc(CN(C)c2nc(-c3cccs3)nc3ccccc23)c1 | inconclusive [inhibitor, partial curve] | –
CCc1ccc(NC(=O)c2ccc3nc(C(C)C)oc3c2)cc1 | inconclusive [inhibitor, partial curve] | –
CSc1ccc(-c2nc3c(C)cccn3c2Nc2ccc3c(c2)OCCO3)cc1 | – | inactive: 14.8%
COc1cc(OC)c(NC(=O)Cn2c(=O)cc(C)c3c(C)nn(-c4ccc(C)cc4)c32)cc1Cl | – | inactive: -8.58%
Cc1ccc(OCc2nnc(SCC(=O)Nc3ccccc3C(C)C)o2)cc1 | – | inactive: -4.48%
CN(c1ccccc1)S(=O)(=O)c1ccc(Cl)c(C(=O)Nc2ccc(N3CCOCC3)cc2)c1 | inconclusive [activator, partial curve, poor fit] | –
Cc1ccc(Cn2c(/C=C/c3ccco3)nc3ccccc32)cc1 | inconclusive [inhibitor, partial curve] | –
CC1(C)SC(=S)N(/N=C/c2ccccc2O)C1N(O)C(=O)Nc1ccccc1 (stereo not given) | inconclusive [inhibitor, partial curve, poor fit] | –
COc1ccc(OCCSCc2nnc(NC(=O)Nc3ccc(Cl)cc3)s2)cc1 | active: 28.2 µM | –
COc1ccc(CCCc2nnc(SCC(=O)Nc3ccc(F)cc3)o2)cc1C | inconclusive [inhibitor, full curve] | –
Cc1ccccc1NC(=O)Cn1c(=O)n(Cc2ccc3c(c2)OCO3)c(=O)c2ccc(C(=O)NC3CCCCC3)cc21 | inconclusive [inhibitor, partial curve] | –
CSc1nc(N)nc(SCC(=O)Nc2cccc(F)c2)c1C#N | – | inactive: 3.71%
N#Cc1ccccc1Sc1ccccc1C(=O)OCc1nnc(-c2ccccc2)o1 | – | inactive: -8.03%
O=C(Cn1cnc2onc(-c3ccc(F)cc3)c2c1=O)Nc1cccc(C(F)(F)F)c1 | inconclusive [inhibitor, partial curve] | –
O=c1cc(/C=C/c2ccccc2)oc2ccccc12 | – | inactive: -7.13%
